According to PubChem BioAssay AID493208 (National Center for Advancing Translational Sciences (NCATS), 2011):
Among all 44,000 compounds or so, about 340 (0.77%) were called active. Inconclusive results (about 5%) are left out. Calls follow the shape of the dose curve; as a rule, active = well fitted inhibition curve with a large enough effect; inconclusive = small, poorly fitted or top-dose-only effect; inactive = flat fitted curve, though single readings scatter. The list shows a part of the results.

assay: Acumen qHTS Assay for Inhibitors of the mTORC1 Signaling Pathway in MEF (Tsc2-/-, p53-/-) Cells: Sytravon; conditions: phospho-rpS6 immunofluorescence/PI, 24 h; series mostly up to 38.3 µM; activity change, negative = inhibition: at the top concentration;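 also: plate controls were DMSO for no effect and rapamycin for full effect; nearly all actives have a fitted effect of over 50% in size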
Procedure, shortened: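 Read-out: phospho-S6 Alexa-488 intensity over PI intensity per well, scored as % active cells using thresholds from rapamycin (7.5 nM) and DMSO controls. Tsc2-/-, p53-/- MEFs exposed to compound for 24 h; PI cell count recorded as viability.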

SMILES | activity change, negative = inhibition
Oc1ccc(-c2nc3ccccn3c2Nc2ccc3c(c2)OCCO3)cc1 | inactive: -11.5%
NCCCCCc1nnc(SCc2ccc(F)cc2)o1 | inactive: 6.67%
COCCNC(=O)CSc1c2c(nc3cc(Cl)ccc13)CCCC2 | inactive: -9.45%
CCCc1nn2c(=O)cc(COC(=O)c3cccc(NC(=O)CCc4ccccc4)c3)nc2s1 | inactive: 7.45%
COCCCNC(=O)c1ccc2nc(Cc3ccc(OC)cc3)oc2c1 | inactive: 1.64%
CCOc1ccc(CNC(=O)C2CCN(S(=O)(=O)N3CCCCC3)CC2)cc1 | inactive: 7.76%
CC(=O)Nc1nonc1-c1nnc(SCc2ccc(F)cc2)n1C | inactive: -12.7%
COc1ccc(NC(=O)COCc2cc(-c3ccco3)on2)cc1 | inactive: -5.11%
CCCCSc1nnc2n(-c3cccc(C)c3)c(=O)c3c4c(sc3n12)CCCC4 | inactive: -0.48%
Fc1ccccc1Oc1ncnc2c1oc1ccccc12 | inactive: -1.6%
Clc1ccc(-c2csc(=Nc3ccccc3)n2Cc2ccc3c(c2)OCO3)cc1 | inactive: -5.45%
Cc1cccc(OCc2nc(C#N)c(NCc3ccccc3Cl)o2)c1 | inactive: -12.6%
CCOC(=O)C1CCN(C(=O)CSc2n[nH]c(-c3ccccc3)n2)CC1 | inactive: -4.54%
Cc1ccc2nc(COc3ccc(NC(=O)COc4ccccc4F)cc3)cc(=O)n2c1 | inactive: 0%
COc1ccc(NC(=O)CSc2nc3ccccc3[nH]2)cc1 | inactive: -5.02%
Cc1ccc(C)c(N2CCN(C(=O)Cn3c(=O)c4cccn4c4ccc(F)cc43)CC2)c1 | inactive: -5.21%
Cc1ccc(NC(=O)CSCn2nnc3c(=O)[nH]c(Cc4ccc(F)cc4)nc32)c(C)c1 | inactive: 6.66%
Cc1cccc(N2CCN(C(=O)c3ccc4c(c3)N(Cc3ccccc3F)C(=O)c3ccccc3S4=O)CC2C)c1 (stereo not drawn) | inactive: -9.59%
COc1cc2c(=O)c(C(=O)c3ccc(C)c(C)c3)cn(Cc3ccccc3)c2cc1OC | inactive: -2.19%
Cc1cc(C)c2nc(NC(=O)c3ccc(S(=O)(=O)N4CCCC4)cc3)sc2c1 | inactive: -13.6%
COc1ccc(-c2cc3nc(C)c(CCC(=O)N4CCN(c5ccccc5)CC4)c(C)n3n2)c(OC)c1 | inactive: -8.42%
Cc1c(CC(=O)NCc2ccccc2)c(=O)oc2c(C)c(O)ccc12 | inactive: -16.6%
CCOc1cc(C2C(C(=O)OC)=C(C)NC3=C2C(=O)c2ccccc23)c(Br)cc1OC (stereo not drawn) | inactive: -0.348%
CCOCCCNC(=O)Cn1nc(C)n2c(cc3cc(C)ccc32)c1=O | inactive: 2.99%
CCCCN(CCCNC(=O)CN1N=C(c2ccccc2)CCC1=O)c1ccccc1 | inactive: 11.2%

SMILES | activity change, negative = inhibition
O=C(COc1ccccc1Cl)Nc1nc2c(s1)CCCC2 | inactive: -3.38%
Cc1cccc(NC(=O)C2CCCN(S(=O)(=O)c3cccc4nonc34)C2)c1C (stereo not drawn) | inactive: -27.8%
Cc1cc2oc(=O)c(CC(=O)NCCc3ccccc3)c(C)c2c2occ(C(C)(C)C)c12 | inactive: -14.2%
Cc1cc(C(=O)O)c2c(=O)n(C)c(=O)n(C)c2n1 | inactive: -1.78%
COc1ccc(-c2cn3c(n2)sc2cc(C(=O)NC4CCCc5ccccc54)ccc23)cc1 (stereo not drawn) | inactive: 13%
COc1cc2c(cc1NC(=O)COc1cc(C)ccc1C)oc1ccccc12 | inactive: -0.791%
CCCCN(C)CCCNC(=O)c1ccc2nc(N3CCCCC3)sc2c1 | inactive: -11.3%
CCN(C(=O)CCc1nc(-c2ccc(C)cc2)no1)c1cc(C)ccc1C | inactive: -0.328%
CCN(Cc1ccccc1)Cc1c(O)ccc2c(=O)c(-c3ccccc3OC)c(C(F)(F)F)oc12 | inactive: -1.29%
Cc1cccc(OCCSc2nc3ccccc3n2CC(=O)N2CCCCC2)c1C | inactive: -0.338%
CCOC(=O)c1ccc(N2CCN(c3cc(Cl)ccc3C)CC2)c(NC(=O)Nc2cccc(OC)c2)c1 | inactive: 8.43%
CC(=O)Nc1nonc1-c1nnc(SCC(=O)Nc2ccc(F)cc2F)n1-c1ccccc1 | inactive: -14.6%
Cc1c(C)n(Cc2ccccc2)c2ccc(C(=O)NC(C)c3ccccc3)cc12 (stereo not drawn) | inactive: -21.2%
Cc1ccc(Cn2c(CNS(=O)(=O)c3c(C)cc(C)cc3C)nc3cccnc32)cc1 | inactive: -24.9%
COc1ccc(N2CC(NC(=O)/C=C\c3ccc(OC)c(OC)c3)CC2=O)cc1 (stereo not drawn) | inactive: 1.54%
CCc1ccc(-n2c(SC(CC)C(=O)N(CC)CC)nc3n[nH]c(C)c3c2=N)cc1 (stereo not drawn) | inactive: -5.64%
Cc1nc(CC(=O)Nc2ccc(C)c(C)c2)cs1 | inactive: 3.92%
CCOC(=O)N1CCN(S(=O)(=O)N2CCCC(C(=O)NCc3cc(OC)ccc3OC)C2)CC1 (stereo not drawn) | inactive: 4.26%
CCOCCCNC(=O)C1CCCN(Cc2nc(-c3ccc(CC)cc3)oc2C)C1 (stereo not drawn) | inactive: -7.93%
CCc1ccc(OCC(=O)N(Cc2cccs2)c2ccc(Cl)cc2)cc1 | inactive: -9.68%
CCn1ccc2cc(S(=O)(=O)N3CCCN(C(=O)Nc4ccccc4OC)CC3)ccc21 | inactive: -4.64%
CCc1cccc(CC)c1NC(=O)Cn1nnc2sc(-c3ccccc3)cc2c1=O | inactive: 0.896%
COc1ccc(N2CCN(C(CNC(=O)CC(C)C)c3ccc4c(c3)OCO4)CC2)cc1 (stereo not drawn) | inactive: -3.75%
COc1ccc(-c2nc(CS(=O)CC(=O)NCc3ccc(F)cc3)c(C)o2)cc1OC (stereo not drawn) | inactive: -0.0405%
CCCCOc1ccc(C2=NC(c3ccncc3)=Nc3ccc(Br)cc3N2)cc1 | inactive: -1.82%

SMILES | activity change, negative = inhibition
COc1ccc(OCC(=O)Nc2ccc(C(=O)OCc3cc(=O)n4nc(C)sc4n3)cc2)cc1 | inactive: 4.42%
CCOc1ccccc1N(CC)C(=O)Nc1cn(C)c(=O)c2ccccc12 | inactive: 0%
Cc1c(Cl)cccc1-n1ncc(C(=O)N2CCc3ccccc3C2)c1C1CCN(C(=O)OC(C)(C)C)CC1 | inactive: -0.534%
Cc1ccc(/C=C/c2onc(C)c2S(=O)(=O)N2CCC(C(=O)N3CC(C)Oc4ccccc43)CC2)cc1 (stereo not drawn) | inactive: -1.95%
CCCCCn1c(=O)[nH]c2cc(C(=O)N3CCN(c4ccccc4)CC3)ccc2c1=O | inactive: -4.55%
COc1ccc2c(c1)cc1c(=O)n(CC(=O)NC3CCCCC3)nc(C)n12 | inactive: -2.12%
Cc1ccc(NC(=O)c2oc3ccccc3c2NC(=O)Cc2cccs2)cc1 | inactive: 4.63%
CCc1ccc(NC(=O)CC2C(=O)N(c3cccc(OC)c3)C(=O)N2Cc2ccco2)cc1 (stereo not drawn) | inactive: -7.91%
COc1ccccc1NC(=O)CCS(=O)(=O)c1ccc2nc(C)sc2c1 | inactive: -10.7%
Cc1ccc(C(Nc2ccccn2)c2ccc3cccnc3c2O)cc1 (stereo not drawn) | inactive: -19.1%
COc1cc(Cl)c(NS(=O)(=O)c2ccc3c(c2)CC(C)N3C(=O)C2CCC2)c(OC)c1 (stereo not drawn) | inactive: -1.9%
CC(=O)N1CCC(N(C(=O)Nc2ccc(C)c(F)c2)C(C)C)CC1 | inactive: -0.314%
CCc1c(C)sc2c1CCN(C(=O)Nc1ccccc1C(F)(F)F)C2c1ccccc1 (stereo not drawn) | inactive: 0%
Cc1ccccc1NC(=O)c1c(NC(=O)C(C)Oc2cccc(Cl)c2)sc2c1CCCC2 (stereo not drawn) | inactive: 6.13%
COc1cc(Cl)c(C)cc1NC(=O)CCc1c(C)nc2cc(-c3cccc(F)c3)nn2c1C | inactive: 6.7%
O=C(CCn1cnc2onc(-c3ccc(F)cc3)c2c1=O)N1CCN(c2ccc(F)cc2)CC1 | inactive: -13%
CCn1c(C(=O)N2CCCC(C(=O)NCCCOC)C2)cc2sccc21 (stereo not drawn) | inactive: -0.421%
COc1ccccc1CNC(=O)CC1N=C2c3ccccc3N=C(SCC(=O)Nc3ccc(F)cc3)N2C1=O (stereo not drawn) | inactive: -0.199%
COc1ccccc1Nc1nn2c(=O)c3ccc(C(=O)N4CCC(C)CC4)cc3nc2s1 | inactive: -0.739%
COc1ccc(S(=O)(=O)Nc2cccc(-c3ccc(N4CCOCC4)nn3)c2)cc1F | inactive: -7.93%
COc1cc(NC(=O)c2c(-c3ccc(C)cc3)nnc3ccccc23)cc(OC)c1OC | inactive: -5.62%
Cc1oc2c(c1C(=O)Nc1cccc(Br)c1)C1=NCCN1C=N2 | inactive: -5.2%
O=C(c1nc(-c2ccc(Cl)cc2)n2c1CCCCC2)N1CCN(c2ccccc2F)CC1 | inactive: 3.54%
CC(=O)c1ccc(N2C(=O)N(Cc3cccc(C(F)(F)F)c3)c3ccccc3S2(=O)=O)cc1 | inactive: -6.73%
CC(=O)Nc1ccc(NC(=O)CCCc2nc(-c3ccc(C(C)(C)C)cc3)no2)cc1 | inactive: -2.05%

SMILES | activity change, negative = inhibition
CC1=C(C(=O)OC2CCCC2)C(c2ccc(F)cc2F)CC(=O)N1 (stereo not drawn) | inactive: 1.01%
Cc1ccc(CS(=O)(=O)c2cn(CC(=O)N(C)c3ccccc3)c3ccccc23)cc1 | inactive: 1.79%
Cc1nc2scc(C)n2c(=O)c1S(=O)(=O)NCc1ccccc1Cl | inactive: -0.444%
CCOc1cc(C(=O)Nc2ccc3oc(-c4ccc(F)cc4Cl)nc3c2)cc(OCC)c1OCC | inactive: -5.5%
Cc1ccc(NC(=O)c2cc(C)nn2-c2ccccc2)cc1 | inactive: -6.55%
COc1ccc(N(Cc2cccs2)C(=O)c2ccccc2C)cc1 | inactive: -11%
COc1cc(C2C(=O)N(C3CCCCC3)CC(=O)N2C2CCCC2)ccc1OC(C)C (stereo not drawn) | inactive: 1.4%
O=C(CSc1nc(-c2ccc(F)cc2)cc(C(F)(F)F)n1)NCc1ccccc1 | inactive: -16.8%
CCCCNC(=O)CCC(=O)NNc1nc2ccccc2c2nc(-c3ccccc3)nn12 | inactive: -11.3%
Cc1cccc(C(=O)Nc2c3c(nn2-c2ccc(Cl)cc2)CS(=O)(=O)C3)c1 | inactive: -9.4%
O=[N+]([O-])c1cc(-c2nc(-c3ccccc3)no2)ccc1NCC1CCCO1 (stereo not drawn) | inactive: -0.582%
CCOC(=O)c1ccc2c(c1)N(Cc1cccc(OC)c1)C(=O)c1ccccc1S2(=O)=O | inactive: 4.57%
CC1CCN(c2ccc(NC(=O)c3cccc(Cl)c3)cc2C(=O)O)CC1 | inactive: -3.02%
Cc1ccc(-c2cc(C(=O)NC(C)c3ccccc3)c3ccccc3n2)cc1C (stereo not drawn) | inactive: 14.9%
CC(=O)Nc1ccccc1-c1nc2ccccc2n(CC(=O)c2ccc(C)c(C)c2)c1=O | inactive: -28.3%
CCC(CC)C(=O)Nc1ccc(OCc2cc(=O)n3ccsc3n2)cc1 | inactive: -5.07%
Cc1ccc2ncc(C(=O)NCc3ccccc3Cl)c(=O)n2c1 | inactive: -0.978%
Cc1ccc(CCNC(=O)C2CCN(c3nnc(C)c4c(C)n(-c5ccccc5)nc34)CC2)cc1 | inactive: -0.441%
COc1ccc(C)cc1NCc1nnc2n1CCCCC2 | inactive: -12.2%
COc1ccc(NC(=O)CSc2nc3ncccc3[nH]2)c(OC)c1 | inactive: -9.63%
Cn1c(=O)cc(OCC(=O)N2CCN(c3ccccc3)CC2)c2ccccc21 | inactive: -2.13%
CCc1ccccc1NC(=O)c1ccc(F)c(S(=O)(=O)NC2CCCCCC2)c1 | inactive: 7.7%
Cc1ccc(NC(=O)CSCc2cnn(-c3ccccc3)c2-n2cccc2)c(C)c1 | inactive: -5.56%
